Hit rate of the full screen: of about 200,000 compounds, about 4,500 (2.2%) were called active. The inconclusive results got no clear call from the source; some entries with a clear call stand among them for comparison. Calls come from the whole dose curve; as a rule, active = well fitted inhibition curve with a large enough effect; inconclusive = small, poorly fitted or top-dose-only effect, or effect the other way; inactive = flat fitted curve, though single readings scatter. Where the call is inconclusive, the potency comes from a doubtful curve fit.
Each molecule was assayed against Cruzipain (Trypanosoma cruzi) (UniProt P25779) (assay: qHTS Assay for Promiscuous and Specific Inhibitors of Cruzain (without detergent)). Conditions: purified cruzain, Z-FR-AMC fluorescence, no detergent.
Sequence of UniProt P25779 (P25779 whole entry, looked up): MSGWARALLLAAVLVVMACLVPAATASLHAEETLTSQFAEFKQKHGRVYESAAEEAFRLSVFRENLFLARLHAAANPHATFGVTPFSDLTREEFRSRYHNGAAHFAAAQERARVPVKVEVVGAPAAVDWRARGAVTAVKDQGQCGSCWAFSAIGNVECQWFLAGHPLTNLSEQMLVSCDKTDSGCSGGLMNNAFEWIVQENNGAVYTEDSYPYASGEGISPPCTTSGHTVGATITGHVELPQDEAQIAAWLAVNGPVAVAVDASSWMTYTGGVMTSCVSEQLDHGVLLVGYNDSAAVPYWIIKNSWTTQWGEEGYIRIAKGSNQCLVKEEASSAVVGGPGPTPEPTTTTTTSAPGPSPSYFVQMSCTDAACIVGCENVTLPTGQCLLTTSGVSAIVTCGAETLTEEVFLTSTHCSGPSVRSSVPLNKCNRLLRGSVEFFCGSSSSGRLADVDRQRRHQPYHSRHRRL
In short: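 Purified cruzain at 1.5 nM, pre-incubated 15 min with compound at room temperature in 100 mM sodium acetate pH 5.5, 5 mM DTT, 0.00005% Triton X-100. Reaction started with 2 uM Z-FR-AMC; AMC fluorescence increase over 60 s gives rate.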
For `O=C1CC(c2ccc(F)cc2)c2c(c3ccccc3[nH]c2=O)O1` (stereo not drawn), the max response, negative = inhibition was inactive: -14.6%. With `CCOc1ccccc1NC(=O)Nc1cc2c(cc1N1CCCCC1)n(CC)c(=O)n2CC` the max response, negative = inhibition was inactive: -2.83%. `CO[C@H]1C[C@@H]2CC[C@@H](C)[C@@](O)(O2)C(=O)C(=O)N2CCCC[C@H]2C(=O)OC([C@H](C)C[C@@H]2CC[C@@H](O)[C@H](OC)C2)CC(=O)[C@H](C)/C=C(\C)[C@@H](O)[C@@H](OC)C(=O)[C@H](C)C[C@H](C)/C=C/C=C/C=C/1C` (stereo partly drawn) was tested, and the Potency was inconclusive: 3.16 µM [activator, full curve]. In the case of `COc1cc(OC)cc(-c2nc3ccccc3c(=O)n2OC(=O)c2ccc(C)c(C)c2)c1`, the Potency is reported as inconclusive: 31.6 µM [inhibitor, single point]. In the case of `CCOc1ccc(N2C(=O)CC(Sc3nc(-c4cccs4)cc(C(F)(F)F)c3C#N)C2=O)cc1` (stereo not drawn), the Potency is reported as active: 12.6 µM. For `Cc1nc2nc(SCC(=O)NCCc3ccc(Cl)cc3)nn2c(C)c1Cc1ccccc1Cl`, the Potency was inconclusive: 39.8 µM [activator, single point]. With `Cc1ccc(SCc2nc(-c3ccc(C(=O)Nc4cc(C)ccc4C)cc3)oc2C)cc1` the max response, negative = inhibition was inactive: 7.14%. With `Cc1ccc(NC(=O)CSc2nc3ccc(NC(=O)COc4ccc(C)cc4)cc3s2)cc1` the Potency was inconclusive: 6.31 µM [inhibitor, single point]. `COc1ccccc1N1CCN(C(=O)CCn2nc(C)c(S(=O)(=O)N3CCCC3)c2C)CC1` was tested, and the Potency was inconclusive: 39.8 µM [activator, single point]. In the case of `COc1ccc(C(=O)CSc2nnc(CNc3ccc(C)cc3C)n2Cc2ccco2)cc1`, the Potency is reported as inconclusive: 31.6 µM [inhibitor, single point]. For `Cc1ccc(NS(=O)(=O)c2ccc3c(c2)[C@H]2C=CC[C@H]2[C@@H](c2ccc(F)cc2)N3)cc1C`, the Potency was inconclusive: 2.51 µM [inhibitor, full curve]. In the case of `COc1ccc(C(c2sc3nc(C)nn3c2O)N2CCC(O)CC2)cc1OC` (stereo not drawn), the max response, negative = inhibition is reported as inactive: 11.9%. `Cc1c(/C=C(\C#N)C(=O)Nc2cccc(Cl)c2)c2ccccc2n1Cc1ccccc1` was tested, and the Potency was active: 3.98 µM. For `N/C(Cc1ccc([N+](=O)[O-])cc1)=N\OC(=O)c1ccc2ccccc2c1`, the Potency was inconclusive: 0.158 µM [inhibitor, full curve, poor fit]. `COC(=O)c1sc2cccc(F)c2c1S(=O)(=O)Nc1ccc(C)cc1Cl` was tested, and the max response, negative = inhibition was inactive: -3.52%. With `COc1ccc(C2CC(=O)Nc3c2c(=O)n(C)c2nc4ccccc4n32)cc1` (stereo not drawn) the max response, negative = inhibition was inactive: 3.91%. In the case of `Cc1ccc(C)c(N2CCN(C(=O)c3ccc4nc(-c5ccco5)c(-c5ccco5)nc4c3)CC2)c1`, the max response, negative = inhibition is reported as inactive: 0.0967%. `COC(=O)NC(c1ccccc1)c1c[nH]c2ccccc12` (stereo not drawn) was tested, and the max response, negative = inhibition was inactive: -7.33%. In the case of `O=C(Nc1ccc(-c2nc3ccccc3s2)c(OC(=O)c2ccccc2)c1)c1ccccc1`, the Potency is reported as active: 25.1 µM. `COc1ccccc1CN1CCC2(CC1)CCN(C(=O)c1cccc(F)c1)CC2` was tested, and the max response, negative = inhibition was inactive: -15.8%. For `COc1cccc(NC(=O)CC2S/C(=N\S(=O)(=O)c3ccccc3)N(c3ccccc3)C2=O)c1` (stereo not drawn), the Potency was inconclusive: 20 µM [inhibitor, partial curve]. In the case of `CCOc1ccc(OCC)c(NC(=O)CCc2nc3cccnc3n2Cc2cccs2)c1`, the Potency is reported as inconclusive: 39.8 µM [activator, single point]. `O=C1c2cc([N+](=O)[O-])ccc2-c2ccc3c4ccc5c6c(ccc(c7ccc1c2c73)c64)C(=O)c1cc([N+](=O)[O-])ccc1-5` was tested, and the Potency was inconclusive: 3.98 µM [inhibitor, single point]. With `Cc1cc(C)cc(NC(=O)OCCN2CCN(Cc3ccccc3)CCC2=O)c1` the Potency was inconclusive: 44.7 µM [inhibitor, single point]. `COc1ccc(C(=O)NCc2ccc(-c3nc4ccccc4s3)cc2)cc1` was tested, and the Potency was inconclusive: 12.6 µM [inhibitor, partial curve]. In the case of `S=c1[nH]c2ncccc2o1`, the max response, negative = inhibition is reported as inactive: -4.98%. For `Cc1ccc(CNC(=O)CSc2ncc(S(=O)(=O)c3ccc(C)c(Cl)c3)c(=O)[nH]2)cc1`, the Potency was inconclusive: 1.58 µM [activator, partial curve]. For `CSc1ccc(/C=C(/NC(=O)c2ccc(C)cc2)C(=O)Nc2cccc(C)c2)cc1`, the Potency was active: 6.31 µM. In the case of `Cc1ccc2nc(-c3ccc(NC(=O)c4ccccc4S(C)(=O)=O)cc3)sc2c1`, the Potency is reported as inconclusive: 15.8 µM [activator, partial curve]. `O=C(Nc1ccccc1O)c1cc(S(=O)(=O)N2CCCC2)ccc1Cl` was tested, and the max response, negative = inhibition was inactive: -6.22%. With `O=C(N/N=C/c1cccc(Oc2ccc([N+](=O)[O-])cc2[N+](=O)[O-])c1)c1cncc(Br)c1` the Potency was active: 25.1 µM. `COc1ccc(OC)c(NC(=O)CSC2=Nc3ccccc3C3=NC(CC(=O)NCc4ccc(F)cc4)C(=O)N23)c1` (stereo not drawn) was tested, and the Potency was inconclusive: 31.6 µM [activator, single point]. With `COC(=O)c1ccccc1NC(=O)c1cc(C)nc2c1c(C)nn2-c1ccc(C)cc1` the max response, negative = inhibition was inactive: 2.67%. With `C=CCNC(=S)N/N=C/c1cn(-c2ccccc2)nc1-c1ccc(OC)cc1` the Potency was inconclusive: 39.8 µM [inhibitor, single point]. For `Cc1cccc(-c2cc3nc(C)cc(N4CC(C)CC(C)C4)n3n2)c1` (stereo not drawn), the Potency was inconclusive: 31.6 µM [activator, single point]. `CN(C)S(=O)(=O)c1ccc2c(c1)N(CC(=O)Nc1ccc(F)cc1)C(=O)CS2` was tested, and the max response, negative = inhibition was inactive: -10.7%. In the case of `CCC(C(=O)Nc1cc(C)nn1-c1nc(C)cc(C)n1)c1ccccc1` (stereo not drawn), the Potency is reported as inconclusive: 31.6 µM [activator, single point]. With `CC(C)c1ccc(NS(=O)(=O)c2ccc3[nH]cc(C(=O)NCC4CCCO4)c(=O)c3c2)cc1` (stereo not drawn) the Potency was inconclusive: 31.6 µM [activator, single point]. `Cc1ccc(C)c(N2CCN(C(=O)CSc3ccsc3[N+](=O)[O-])CC2)c1` was tested, and the Potency was inconclusive: 39.8 µM [inhibitor, single point]. In the case of `Cc1ccc(Cn2c(SCC(=O)NCc3ccccc3Cl)nc3ccsc3c2=O)cc1`, the max response, negative = inhibition is reported as inactive: 2.18%. `CCOC(=O)c1cc2c(=O)n3ccccc3nc2n(Cc2ccco2)c1=NC(=O)c1cccc(F)c1` was tested, and the max response, negative = inhibition was inactive: -6.15%. With `Fc1ccc(Nc2nc(SCc3ccccc3F)nc3ccccc23)cc1` the max response, negative = inhibition was inactive: -8.09%. With `COc1cc(NC(=O)CCCc2nnc3n(CC(C)C)c(=O)c4sccc4n23)cc(OC)c1` the max response, negative = inhibition was inactive: -13.7%. In the case of `O=C1NC(c2ccco2)Nc2sc3c(c21)CCN(Cc1ccccc1)C3` (stereo not drawn), the Potency is reported as inconclusive: 31.6 µM [inhibitor, single point]. In the case of `Cc1ccc(-c2nnn(CC(=O)N(Cc3ccccc3)C(C(=O)NC(C)(C)C)c3ccncc3)n2)o1` (stereo not drawn), the Potency is reported as inconclusive: 39.8 µM [activator, single point]. With `COCCNC(=O)C(C)N(c1ccc(Oc2ccccc2)cc1)S(C)(=O)=O` (stereo not drawn) the Potency was inconclusive: 1.58 µM [inhibitor, single point]. In the case of `CCC1CCCCN1C(=O)CSc1nc(-c2ccc(OC)c(OC)c2)cc(C(F)(F)F)n1` (stereo not drawn), the Potency is reported as inconclusive: 20 µM [activator, partial curve]. In the case of `CC(OC(=O)c1cc(S(=O)(=O)N(C)c2ccccc2)ccc1Cl)C(=O)Nc1ccc2c(c1)OCCO2` (stereo not drawn), the Potency is reported as inconclusive: 31.6 µM [inhibitor, single point]. With `O=C(CCN1C(=O)/C(=C/c2ccc3c(c2)OCO3)SC1=S)Nc1ccccc1` the Potency was active: 7.94 µM. For `O=c1oc2ccc3ccccc3c2cc1-c1nnc(-c2ccccc2)o1`, the Potency was inconclusive: 20 µM [activator, partial curve]. For `Cc1ccc2cc(C3C(C#N)=C(N)Oc4c3ccc3cccnc43)c(=O)[nH]c2c1` (stereo not drawn), the max response, negative = inhibition was inactive: -13.2%. With `Cc1cccc(N2CCN(C(=O)CN3C(=O)COc4ccc(S(=O)(=O)N5CCOCC5)cc43)CC2)c1C` the Potency was inconclusive: 39.8 µM [activator, single point]. `CCc1ccc(S(=O)(=O)Nc2ccc3[nH]c(=O)sc3c2)cc1` was tested, and the max response, negative = inhibition was inactive: -1.05%. For `CC1CCc2c(sc(NC(=O)C(=O)NCc3ccco3)c2C#N)C1` (stereo not drawn), the Potency was inconclusive: 20 µM [inhibitor, single point]. `CCCCCCn1c(SCCC)nc2c1c(=O)[nH]c(=O)n2C` was tested, and the Potency was inconclusive: 31.6 µM [inhibitor, single point]. For `Cc1cccc(NC(=O)c2sc3nc4c(cc3c2N)CN(C(C)C)CC4)c1`, the Potency was inconclusive: 31.6 µM [inhibitor, single point]. `Cc1nc(NC(=O)c2c(-c3ccccc3)c(-c3ccccc3)nn(C)c2=O)sc1C` was tested, and the Potency was inconclusive: 31.6 µM [activator, single point]. With `COCCn1c(=O)c(-c2ccc(F)cc2)nc2cnc(N3CCOCC3)nc21` the max response, negative = inhibition was inactive: -1.69%. With `COc1ccc2nc(NC(=O)[C@@H]3CCCN3C(=O)c3cccs3)sc2c1` the Potency was inconclusive: 6.31 µM [inhibitor, single point]. With `COc1ccc(NC(=S)NC(NC(=O)c2cccc(C)c2)C(Cl)(Cl)Cl)c([N+](=O)[O-])c1` (stereo not drawn) the Potency was inconclusive: 5.01 µM [activator, full curve, poor fit]. `COCCCN1C(=O)c2[nH]nc(-c3ccccc3O)c2C1c1ccc(OCc2ccccc2)cc1` (stereo not drawn) was tested, and the Potency was inconclusive: 39.8 µM [inhibitor, single point]. For `COc1ccccc1-c1nnc2sc(-c3ccc(N(C)C)cc3)nn12`, the Potency was inconclusive: 25.1 µM [activator, single point]. For `CCOC(=O)c1c(-c2ccc(C)cc2)csc1NC(=S)NC(=O)c1ccccc1`, the Potency was active: 25.1 µM.
Note: nearly all actives have a fitted effect of over 40% in size.
Potency is the fitted concentration of half-maximal effect; tags give direction and shape of the fitted curve.
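Throughout, for max response, negative = inhibition: plate controls were enzyme without inhibitor for no effect and buffer without enzyme for full effect.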
